Results on 81 compounds are retold here after publication PMC12040169 (PLOS Biology, 2025).

This is one part of the list.

This test deals with T1, C. trachomatis L2/434/Bu expressing GFP (CTL2-GFP).
T1 construct: L2/434/Bu GFP intracellular growth in HeLa cells
More on the design: species or system HeLa; C. trachomatis total inclusion area by high-content imaging, normalised to DMSO. The settings on record: total inclusion area; 28.5 h, 10 µM; inhibitor. The method, boiled down:
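Following bulk GFP and resorufin fluorescence reads, infected cells were fixed, Hoechst-stained and imaged on a high-content platform. Inclusion total area and number per well served as growth proxies; nuclei counts indicated host viability. MICs were derived as for the fluorescence assay.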
Turning to `O=C(NC(C(=O)c1ccccc1)N1CCCCC1)c1ccccc1` (stereo not drawn) [CBK261035], the “% of control remaining” value is given as 70.211.

`CC(C)(CNC(=O)Cn1cnc2ccccc21)N1CCCCC1` [CBK281879]: the “% of control remaining” value amounted to 109.288.

As for `CC(NC(=O)N(Cc1cccc2ccccc12)C1CCC(N)CC1)c1cccc2ccccc12` (stereo not drawn) [CBK000482C], the “% of control remaining” value worked out at 27.7465.

For `CS(=O)(=O)N(CC(=O)O)c1cccc2ccccc12` [CBK262420], the “% of control remaining” value is listed as 105.748.

Regarding `Cc1noc(C)c1CC(=O)NCc1ccc(CN2CCCCC2)cc1` [CBK281422], the “% of control remaining” value is recorded as 105.956.

For the compound `O=C1c2ccc(Oc3cccc(Oc4ccc5c(c4)C(=O)N(CCO)C5=O)c3)cc2C(=O)N1CCO` [CBK261398], the “% of control remaining” value is reported as 103.507.

In the case of `NC(CC(=O)O)c1ccc(OCc2ccccc2)cc1` (stereo not drawn) [CBK286999], the “% of control remaining” value came out at 108.555.

On to `COc1ccccc1-c1nc(C2CCCN(C(=O)NCCc3cccs3)C2)n2ccccc12` (stereo not drawn) [CBK047163], for which the “% of control remaining” value worked out at 98.8827.

`COCCOCCCN1CCC2(CC1)NC(=O)Cc1ccc(C)cc12` [CBK040222]: the “% of control remaining” value was found to be 98.4763.

Turning to `N#CCCNCC1COc2ccccc2O1` (stereo not drawn) [CBK026615], the “% of control remaining” value came to 91.6436.

Turning to `O=C1NC(=O)C2(CCN(Cc3ccccc3)CC2)N1` [CBK005078], the “% of control remaining” value amounted to 62.3858.

As to `OCCNc1nc(Nc2ccc(Cl)cc2)nc(N2CCCCC2)n1` [CBK266638], the “% of control remaining” value was determined as 113.103.

Consider `OCCn1nc(C2CCCC2)nc1CCc1c[nH]c2ccccc12` [CBK307509], for which the “% of control remaining” value was 75.3276.

Consider `O=C(Nc1cccc(F)c1)C(c1ccccc1)N1CCOCC1` (stereo not drawn) [CBK269191], for which the “% of control remaining” value was 99.38.

Take `COC1C(O)C(CO)OC1n1cc(F)c(SC)nc1=O` (stereo not drawn) [CBK201267]: the “% of control remaining” value is 111.465.

For the compound `CNC(=S)NCCc1c[nH]c2ccccc12` [CBK264853], the “% of control remaining” value was 113.248.

With `COc1ccc(C)cc1C1(CNC(=O)C2CCC(N)C2)CCOCC1` (stereo not drawn) [CBK304312C], the “% of control remaining” value is reported as 125.801.

Regarding `CC(C)(C)NC(=O)COc1ccc(CNc2ccc(C(=O)O)c(Cl)c2)cc1` [CBK287230], the “% of control remaining” value is 112.152.

For `Cc1ccc2oc(CN3CCn4cnnc4C3)c(C)c2c1` [CBK283075], the “% of control remaining” value was 90.6357.

In the case of `CCn1c2ccccc2c2cc(CN(CCN(C)C)Cc3ccccc3)ccc21` [CBK261924], the “% of control remaining” value worked out at 85.6773.

In the case of `Cc1ccc2c(c1)nc(CNC(=O)NCCc1nc(C)no1)n2C` [CBK305552], the “% of control remaining” value stood at 42.1303.

On to `CCOc1cc(/C=C/c2nc(O)c([N+](=O)[O-])c(=O)[nH]2)ccc1OCC(N)=O` [CBK267337], for which the “% of control remaining” value worked out at 116.646.

For the compound `Cc1ccc2c(c1)N(CC(N)=O)C(=O)CO2` [CBK270208], the “% of control remaining” value is 97.7272.

On to `O=C(O)CC1C(=O)NCCN1Cc1c(F)cccc1Cl` (stereo not drawn) [CBK287157], for which the “% of control remaining” value is reported as 98.6558.

For `Cc1noc(C)c1C(=O)NC1Cc2ccccc2C1` [CBK200350], the “% of control remaining” value is reported as 103.167.

Take `COC(=O)c1ccc(-c2ccsc2)nc1` [CBK149229]: the “% of control remaining” value is given as 94.8432.

With `Cc1nc2ccc(C(=O)OCc3ccc(S(=O)(=O)Cc4ccccc4)cc3)cc2nc1C` [CBK269661], the “% of control remaining” value was 111.339.

`COc1ccc(CN2CCC(Cc3ccccc3-c3ccc(C)cc3C)(C(=O)O)CC2)cc1` [CBK286421]: the “% of control remaining” value was 103.202.

For the compound `O=C(O)C1CCN(c2cncc(-c3ccc(F)cc3F)n2)CC1` [CBK065899], the “% of control remaining” value is 123.199.

As to `COc1ccc(C2(NCc3cn(CC(N)=O)c4ccccc34)CC2)cc1` [CBK282833], the “% of control remaining” value was found to be 84.0579.

For `O=C(Nc1ccc(OC(F)F)cc1)Nc1ncc(Br)c2cccnc12` [CBK107635], the “% of control remaining” value is 102.837.

With `Cc1ccn(CCNC(=O)CCN2Cc3ccccc3C2=O)n1` [CBK282655], the “% of control remaining” value worked out at 91.3849.

Take `N#CCCN1CCC2(CC1)NCCc1c2[nH]c2ccccc12` [CBK039788]: the “% of control remaining” value is recorded as 109.78.

For `CCNC(=O)C1(Cc2ccccc2-c2ccccc2C)CCN(C(=O)c2ccccc2)CC1` [CBK285716], the “% of control remaining” value is reported as 94.3768.

With `CCOCc1nc2c(c(NCc3cc(C)on3)n1)CCN(C(C)=O)CC2` [CBK307512], the “% of control remaining” value was 60.7346.

Turning to `CC(C)(Oc1ccc(Cl)cc1)C(=O)O/N=C(\N)c1ccc(I)cc1` [CBK268760], the “% of control remaining” value was 106.511.

As to `O=C(NC(=S)N1C[C@@H]2C[C@@H](C1)c1cccc(=O)n1C2)c1ccco1` [CBK288492], the “% of control remaining” value is on record as 102.103.

Take `CCOC(=O)C(CNC(=O)c1cnc(C)c(Br)c1Cl)Cc1ccccc1` (stereo not drawn) [CBK305247]: the “% of control remaining” value turned out to be 8.01.

On to `O=CN1C2CCC1c1cnc3cc(-c4cccc(F)c4)nn3c1C2` (stereo not drawn) [CBK282269], for which the “% of control remaining” value was determined as 86.003.

With `Cc1ccc(C(=O)O)cc1NC(=O)C1CCCCC1C(=O)O` (stereo not drawn) [CBK263679], the “% of control remaining” value came to 99.1974.

On to `Cc1cccn2c(CN3CCC(O)CC3)c(C(=O)N3CCCCC3)nc12` [CBK307639], for which the “% of control remaining” value was 68.3301.

Consider `Fc1ccc(-c2cccc(N3CCN(c4ccccn4)CC3)n2)cc1Cl` [CBK036877], for which the “% of control remaining” value worked out at 92.1786.

In the case of `COc1cccc(NC(=O)CN2CCC(NC(=O)c3cccs3)CC2)c1` [CBK305800], the “% of control remaining” value is 47.7446.

With `Cc1nnc(CS(=O)(=O)Cc2csc(C(C)(C)C)n2)n1C1CC1` [CBK305489], the “% of control remaining” value was 52.3281.

As for `O=C(c1ccc(=O)[nH]n1)N1C2CCC1CC(c1ccc(F)cc1)C2` (stereo not drawn) [CBK283737], the “% of control remaining” value is 102.822.

Regarding `CC(=O)NCc1cccc(-c2cc(C(=O)Nc3ccc4c(c3)OCCO4)cnc2O)c1` [CBK149871T], the “% of control remaining” value was determined as 98.4359.

For `CCOc1cc(S(=O)(=O)NCCCN2CCOCC2)c(C)cc1C` [CBK268764], the “% of control remaining” value is 107.398.

`CSc1cc(C)c2c(c1)COC1(CCN(CC3CC3)CC1)O2` [CBK061383]: the “% of control remaining” value is 110.6.

As to `COc1ccc(N2CCN(c3cncc(-c4ccc(C(N)=O)cc4)n3)CC2)cc1OC` [CBK065820], the “% of control remaining” value is given as 112.368.

On to `COc1ccc(OC(=O)c2ccc3nonc3c2)cc1` [CBK083571], for which the “% of control remaining” value stood at 98.5808.

Take `N#CCCCN1CCC(Oc2nccnc2OCc2ccc(F)cc2)CC1` [CBK153643]: the “% of control remaining” value was 104.578.

As to `O=C(Nc1ccc2cc[nH]c2c1)c1cccnc1` [CBK160053], the “% of control remaining” value was 103.82.

With `CCNC(=O)N[C@H]1CO[C@H]2[C@@H]1OC[C@@H]2Nc1nccc(-c2cccc(F)c2)n1` [CBK289536], the “% of control remaining” value was 107.953.

Take `O=C(C1=C(O)C(=O)N(CCCn2ccnc2)C1c1ccncc1)c1cccs1` (stereo not drawn) [CBK111017]: the “% of control remaining” value was found to be 101.201.

Regarding `CC(C)C(C(=O)O)N(C)C(=O)OCc1ccccc1` (stereo not drawn) [CBK286593], the “% of control remaining” value is on record as 66.9285.

In the case of `Cc1nnc(CCn2cnc3cccnc3c2=O)s1` [CBK307125], the “% of control remaining” value was 97.9097.

As for `CCc1nc(CNc2ccc(NC(C)=O)cc2Cl)cs1` [CBK305103], the “% of control remaining” value is recorded as 50.4465.

As to `CN(CC(=O)O/N=C(\N)c1ccc(I)cc1)S(=O)(=O)c1cc(Cl)ccc1Cl` [CBK268389], the “% of control remaining” value is reported as 95.589.

For `O=C(CCSc1nc(-c2ccco2)cc(C(F)(F)F)n1)N1CCN(c2ccccn2)CC1` [CBK267626], the “% of control remaining” value came to 84.2486.

`Nc1ncc(-c2cccc3ncccc23)nc1NC1CCOCC1` [CBK063852]: the “% of control remaining” value is listed as 88.1861.

Take `O=C(O)CC(CN1C(=O)c2ccccc2C1=O)C(=O)c1ccccc1` (stereo not drawn) [CBK287221]: the “% of control remaining” value stood at 97.182.

Turning to `COc1ccc(-n2c(SCC(=O)c3ccccc3)nc(O)c(Cc3ccccc3)c2=O)cc1` [CBK263398], the “% of control remaining” value was 91.6303.

Turning to `O=C(c1nccs1)C1CCN(C(=O)C2CCCCC2)CC1` [CBK284175], the “% of control remaining” value came to 68.4087.

Regarding `O=C(O)[C@H]1CN(C(=O)c2cccs2)C[C@@H]1c1ccc(F)cc1` [CBK283734], the “% of control remaining” value amounted to 79.3177.

As to `CC(=O)[C@H]1C[C@@H](CC(=O)Nc2cc3cccnc3nc2Cl)C1(C)C` [CBK091351], the “% of control remaining” value is on record as 105.371.

With `Cn1ncc2c(NCCCC3CCOC3)nc(C(C)(C)C)nc21` (stereo not drawn) [CBK307363], the “% of control remaining” value came out at 100.006.

In the case of `Cc1nc(CC(=O)N2CCC[C@@H]3[C@H]2CCCCc2ccccc2OCC(=O)N3C)cs1` [CBK292091], the “% of control remaining” value turned out to be 96.5025.

Take `COc1ccc(N2CCN(c3cc(-c4cccc([N+](=O)[O-])c4)ncn3)CC2)cc1OC` [CBK091031]: the “% of control remaining” value is listed as 113.898.

Consider `CCN(CC)CC(O)Cn1ccc(-c2cccs2)n1` (stereo not drawn) [CBK005967], for which the “% of control remaining” value stood at 89.4183.

For the compound `O=c1c(-c2nncn2-c2ccccc2)coc2c(O)c(O)ccc12` [CBK266889], the “% of control remaining” value is reported as 117.166.

Take `CC(C)(C)OC(=O)N(c1cncc(N2CCNCC2)n1)[C@@H]1CCOc2ccccc21` [CBK172251G]: the “% of control remaining” value was found to be 27.485.

As for `O=C(COc1ccc(-c2ccccc2)cc1Cl)N1CCN(C(=O)C2CC2)CC1` [CBK295640], the “% of control remaining” value is 86.1038.

As for `NC(=O)c1cccc(CN2CCOC3(CCN(C(=O)OCc4ccccc4)CC3)C2)c1` [CBK161100T], the “% of control remaining” value amounted to 72.9679.

Take `COc1ccc(CN2CCC(c3ncc(C(=O)Nc4ccc(F)cc4)c(C)n3)CC2)cc1` [CBK285629]: the “% of control remaining” value amounted to 65.7402.

As for `COCc1cc(O)nc(Cc2c(Cl)cccc2Cl)n1` [CBK022389], the “% of control remaining” value is 51.2581.

As to `CCOc1ccc(-c2cncc(Nc3ccc4c(c3)OC(F)(F)C(F)(F)O4)n2)cc1` [CBK065728], the “% of control remaining” value is 91.6724.

On to `O=C(NCCCc1ccc(F)cc1)c1cccc(N2CCCC2=O)c1` [CBK282684], for which the “% of control remaining” value is 111.517.

Take `NS(=O)(=O)c1cnc(Cl)c(Br)c1` [CBK034079]: the “% of control remaining” value is 18.5539.

Regarding `CCc1ccc(C(O)CNC2CCN(C3CCCCC3)CC2)cc1` (stereo not drawn) [CBK304604], the “% of control remaining” value is reported as 8.973.

Consider `O=C(O)CC(CNC(=O)Cc1c[nH]c2ccccc12)c1ccc(Cl)cc1` (stereo not drawn) [CBK286598], for which the “% of control remaining” value stood at 87.1086.

Consider `O=C(NC1CC2CCC(C1)N2Cc1ccccc1)c1cccc(Cl)c1` (stereo not drawn) [CBK116291], for which the “% of control remaining” value amounted to 76.5518.
